The values below come from the supplement of paper PMC8728848.

Common to all, as to assay: glycan array binding signal (z-score within array); higher = stronger binding
Common to all, as to conditions: glycan notation: IUPAC condensed, linker removed

The test system of assay [1] is Man(a1-2)Man(a1-2)Man(a1-6)[Man(a1-3)]Man. The essentials:
(§1)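 The binding signal is a Z-score computed within each array. Data were drawn from 3228 arrays in the Consortium for Functional Glycomics database, restricted to those with a known protein sequence. Scores were averaged over arrays of the same protein sequence at different concentrations or buffers, and over linkers, and negative values can be taken as non-binding.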

Assay [2] deals with Man(a1-2)Man(a1-3)[Man(a1-2)Man(a1-6)]Man(a1-6)[Man(a1-2)Man(a1-2)Man(a1-3)]Man(b1-4)GlcNAc(b1-4)GlcNAc. The essentials: as §1
The test system of assay [3] is Man(a1-2)Man(a1-3)[Man(a1-3)[Man(a1-6)]Man(a1-6)]Man(b1-4)GlcNAc(b1-4)GlcNAc. In short, it runs like this: as §1
Assay [4] has as its system Man(a1-2)Man(a1-3)[Man(a1-6)]Man(a1-6)[Man(a1-2)Man(a1-3)]Man(b1-4)GlcNAc(b1-4)GlcNAc. The essentials:
as §1

Assay [5] relates to Man(a1-2)Man(a1-6)[Man(a1-3)]Man(a1-6)[Man(a1-2)Man(a1-2)Man(a1-3)]Man. The essentials: as §1
The subject of assay [6] is Man(a1-2)Man(a1-2)Man(a1-3)[Man(a1-2)Man(a1-6)[Man(a1-3)]Man(a1-6)]Man(b1-4)GlcNAc(b1-4)GlcNAc. In short, it runs like this:
as §1

Assay [7] concerns Man(a1-2)Man(a1-3)[Man(a1-2)Man(a1-6)]Man. The essentials:
as §1

Assay [8] deals with Kdn(a2-3)Gal(b1-4)[Fuc(a1-3)]GlcNAc. The essentials:
as §1

Assay [9] has as its system Man(a1-3)[Man(a1-6)]Man(a1-6)[Man(a1-2)Man(a1-3)]Man(b1-4)GlcNAc(b1-4)GlcNAc. In short, it runs like this:
as §1

The sample as a whole holds a higher share of the strongest signals than the screen did.

For MBP (Homo sapiens) (chain not printed), the “glycan array binding signal (z-score)” value is 3.51 in assay [1] and 0.451 in [2].
With “Angiogenin (Homo sapiens) (chain not printed)”, the “glycan array binding signal (z-score)” value is -1.32 in [3] and 1.82 in assay [4].
With “NCAM1 (Homo sapiens) (chain not printed)”, the “glycan array binding signal (z-score)” value in assay [5] came to 0.08.
As to “Serum Amyloid P component (Homo sapiens) (chain not printed)”, the entries for the “glycan array binding signal (z-score)” value in assay [6] and in assay [7] were -0.603 and -0.47, respectively.
For the substance FGF2 (chain not printed), the “glycan array binding signal (z-score)” value was 1.07 in assay [8] and -0.267 in [9].
With “Siglec-2 (Homo sapiens) (chain not printed)”, the “glycan array binding signal (z-score)” value in [9] turned out to be 2.45.
